Measurements reported in the RNAGym collection of RNA variant scans (doi:10.7554/elife.90254).
Read counts are not given, so values of variants with three or more changes are uncertain.

B1: LINE1-mini (parent)
chain: GGCAGAGCUCAACACAGCGUGGCAAAGUGGCUGUGGCUAGACUGCC

Variants of: B1
Test: self-cleavage, relative activity (ratio to wild type); higher = more cleavage; in vitro, sequencing; the parent is a self-cleaving ribozyme

| Variant | self-cleavage |
| --- | --- |
| G2C G30A U43A G44U | 0.19 |
| G7C C15U U28G C37G | 0.02 |
| C15U A26U G33A G36A A39U C42U | 0.2 |
| C18A A25C C31U | 0.06 |
| G1U C3G A6G C8G G17U C18A G22C | 0.72 |
| C10U G36U C46G | 0.02 |
| G5U C8A G44C C45G | 0.15 |
| C3A U9C U38C | 0.07 |
| G2A G5C U9G C45U | 0.19 |
| C13U A14C A25U | 0 |
| G2U A11G C15U | 0 |
| A4C G40A A41U | 0.1 |
| A4U G21U A24G | 0.45 |
| A26G U28A G35C | 0.02 |
| U9C G29A G33U C37A | 0.01 |
| C8G C31G G40C | 0.01 |
| G21U G33A C37U A41U | 0.03 |
| C3U G5U A14C A24G A39G C45U | 0.13 |
| G1U G22A U38C C45U | 0.26 |
| G2C A4G C10A C37G U38C | 0.01 |
| C10U G17U C42U | 0.18 |
| A14G C23A U32C C42A | 0.04 |
| A11U A39C C42U | 0.01 |
| A4C C10U A41U | 0.07 |

| Variant | self-cleavage |
| --- | --- |
| G5A C37U G40A | 0.12 |
| A6C C10U U20A | 0.08 |
| G1C C3G A11U A12G G21A G30A | 0.02 |
| G7C C13G A24G | 0.26 |
| G1C G2C A4G C8U A26G C42U | 0.03 |
| U20C C37A G44C | 0.38 |
| G2A G5C G27A | 0.08 |
| A4C C10U A14G G19U G36A | 0.03 |
| G1C A6U A14G U20A | 0.05 |
| A16C G17A U20A G40A | 0.01 |
| C3U C8A U34G | 0.3 |
| C3A C10U C18G G29C G40U | 0.09 |
| A11G C13G C23U | 0 |
| G17A U34G G35U U38A A39U | 0.04 |
| G2U A4U G19A | 0.05 |
| G5U A12U C13U G33U | 0.1 |
| C13A G17U C46A | 0.08 |
| G33A G36A A41C | 0.04 |
| G5C G27A G29U U38A | 0 |
| G7U A14C C37A | 0.01 |
| C8A G19C G27U G36A | 0.14 |
| G1A G29A U38G A39C | 0.08 |
| G2C C13A A14C U34C | 0.08 |
| G17A G21C A39C | 0.35 |

| Variant | self-cleavage |
| --- | --- |
| A4G C8A A16C G30A U32C | 0.21 |
| G2A G5A G19A U20A C31A C46G | 0.1 |
| C3G A24U C45A | 0.2 |
| G5U A6G G44U | 0.06 |
| C8U A11G U43A | 0 |
| C3A A16C C18A | 0.13 |
| C3A G33U G36U | 0.46 |
| U9A G27U G30U | 0.12 |
| C18U C31G U32G | 0.02 |
| A12C C13A G33A G36U | 0.03 |
| G7C A16C G17A A39C | 0.17 |
| G2U C10G A11G G17C G33U U34C | 0.01 |
| C8U C37A C45U | 0.21 |
| G2U A6G G21U A39C | 0.01 |
| C10U C23G C37G | 0.02 |
| G1A A4G G5C C10A C37A | 0.02 |
| A12C G35C C45A | 0.01 |
| A4C C18A A39U C42U | 0.04 |
| C3A U28C G36A G40A U43G C45U | 0.16 |
| A6U C8U C23U G35A U38G G40C | 0.02 |
| G1C C10U U38C A39U C46U | 0 |
| C13U A14G C18U U38A A41G | 0.03 |
| G5U G22C C31A G36C | 0.05 |
| C10G C15A G22C A24G | 0.02 |

| Variant | self-cleavage |
| --- | --- |
| A12G C31G U32A C46A | 0.02 |
| C8U A24G G30U U34A A41U | 0.09 |
| G36U C42U U43A C45U | 0.01 |
| G5A U9C G27C | 0.03 |
| G5U C8A A39G | 0.11 |
| C13G C18G A41G C45G | 0.01 |
| A6U A12G A24G | 0.01 |
| A14G C18G G33A A39G A41U | 0.02 |
| C3A C8G G36U | 0.25 |
| C3A G19U G29U C42A | 0.28 |
| C10A C23U U34A C37U | 0.03 |
| G5A C45G C46A | 0.16 |
| A11U U20G A25C A26G | 0.01 |
| A4G G30U U34A | 0.11 |
| A11C C31G C46A | 0 |
| C15A A16C A24G | 0.05 |
| C3U G5A G7C U9G G30U | 0.05 |
| G1U A4U G21U C37A | 0.11 |
| C3U G33C U38G | 0.03 |
| G2A G29C U34A C37A | 0.08 |
| G17A C23G U28A A39G | 0.03 |
| G7A U20G A26U U34C | 0.11 |
| G30A G40U U43G | 0.07 |
| A12G G17C U34G C37A C46A | 0.02 |

| Variant | self-cleavage |
| --- | --- |
| C37U G40C G44A | 0.06 |
| G2C C3A G5A C46G | 0.08 |
| C13A C23A C45U | 0.08 |
| A11C G17C G19C C42G | 0 |
| G5C C15U C46G | 0.03 |
| G5C A24C G44A | 0.05 |
| G1C G2A C18A C23U C42A | 0.02 |
| G7A A16C G21C A26C U34C U38A | 0.03 |
| C10A G17C C42U G44A | 0.03 |
| A6G C13G A24G A26U U38G | 0.01 |
| C10G G17A G27U | 0.04 |
| A4U A12C G30C | 0.07 |
| C13U U38C G40U | 0.05 |
| G2U C8A C10U | 0.02 |
| A16G G19U G40U | 0 |
| A6G C13A G27A | 0.3 |
| A16G A39C G40U | 0.02 |
| C13U G17C C23U A26U G29U | 1.16 |
| G5C C18G A25G | 0.02 |
| A16C G21C A39G | 0.01 |
| G7A C15A G19A A24G A41C | 0.06 |
| C18G G36C C42U C45G | 0 |
| A11C C18A U38C A39G G44A | 0.04 |
| U9C A16G U32G | 0.01 |

| Variant | self-cleavage |
| --- | --- |
| G5A C13G C18G G21U A24U G27C G40A | 0.04 |
| C3U A11C C45A | 0.01 |
| C8A A16G G29A | 0.11 |
| A6C A25U A26C C37U | 0.07 |
| C8G A12C G36U | 0.05 |
| G5U A12U G19C U38G | 0 |
| C10A G22U U34A | 0.05 |
| C13U G29U C31A C42U | 0.02 |
| A16G G36A G40A U43C | 0.08 |
| G2A A11C G19A G30U | 0.12 |
| G7C G36U A39C | 0.1 |
| G5U A14G G36U C37G C42G | 0.03 |
| A6U C13U G19C C23G G35A G36C | 0.87 |
| G5U C18A C31U G35A C42U | 0.02 |
| C10A C13G G17A G36A C45G | 0.05 |
| G5A A6G G19A | 0.1 |
| C13G G36A C46A | 0.01 |
| G5A G40C A41C | 0.04 |
| G5A G7C A12G A25C A39C | 0.07 |
| C8A C15A G21A | 0.56 |
| C3G C10A A14U A41G | 0.01 |
| C18A A25C G27U G30U | 1.65 |
| A14U G27C U34G G44C | 0.26 |
| C15U U34C C46A | 0 |

| Variant | self-cleavage |
| --- | --- |
| C3G A4C G17C G33C G40A | 0.01 |
| A4G A12U U28G G30U A41U | 0.02 |
| G1U U9C G17A G22U C42A | 0.01 |
| G2A C10A A14U C18A | 0.04 |
| G2A G5A G19U A24G G40U | 0.23 |
| A16G G19A G29C G33A | 0.08 |
| C3G A12G G17U G27C | 0.1 |
| A12C G19C C31A | 0.01 |
| A14G G30C G40A | 0.5 |
| C3A C8U A11C G22A A24G U32C G33C G36C | 0 |
| A11G G29U G35C | 0.05 |
| A6U G30U C42A | 0.17 |
| G2A U20G G33A G40A | 0.06 |
| C10G A14U C15G G27U | 0.02 |
| C18A A24G G44U | 0.03 |
| G2A A6G C46U | 2.12 |
| G2C A4G A14U C31U C46A | 0.04 |
| A16G C23A G33A G40C | 0.02 |
| G2A C8A C15G A24G C31G | 0.04 |
| G1C C18G G35U | 0.02 |
| G1U C8A U38A C45G | 0.17 |
| U9A C18A C37A C42G | 0.02 |
| A24U G30U U43G | 0 |
